According to PubChem BioAssay AID493208 (National Center for Advancing Translational Sciences (NCATS), 2011):
The whole screen tested about 44,000 compounds, of which about 340 (0.77%) were called active. Another 5% or so got no clear call; they are omitted. Calls follow the shape of the dose curve; as a rule, active = well fitted inhibition curve with a large enough effect; inconclusive = small, poorly fitted or top-dose-only effect; inactive = flat fitted curve, though single readings scatter. The list shows a part of the results.

test: Acumen qHTS Assay for Inhibitors of the mTORC1 Signaling Pathway in MEF (Tsc2-/-, p53-/-) Cells: Sytravon; details: phospho-rpS6 immunofluorescence/PI, 24 h; series mostly up to 38.3 µM; activity change, negative = inhibition: at the top concentration;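 also: plate controls were DMSO for no effect and rapamycin for full effect; nearly all actives have a fitted effect of over 50% in size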
Method in brief: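 Cell-based qHTS: Tsc2-/- p53-/- MEF, 24 h cpd, 37 °C; fix/perm, anti-phospho-S6 Alexa-488 + PI; Acumen 488 nm scan; pS6/PI ratio, % positive cells; rapamycin 7.5 nM = inhibition ref; PI count = viability.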

Activity change, negative = inhibition, inactive:
COc1cc(Cl)c(NC(=O)c2cc3ccccn3n2)c(OC)c1 6.22%
Cc1cccc(NC(=O)C2CCCN2S(=O)(=O)c2ccc3nc(-c4ccccc4)[nH]c3c2)c1 (configuration not stated) -3.26%
Cc1ccc2c(c1)c1c(c(=O)n(-c3ccccc3)c(=O)n1CC(=O)NCC1CCCO1)n2C (configuration not stated) 1.21%
O=c1n(Cc2ccccc2Cl)c2ccccc2c2nc(-c3ccccc3)nn12 -1.96%
Cc1nn2c(=O)cc(COC(=O)c3ccc(NC(=O)COc4ccc(C)c(C)c4)cc3)nc2s1 -9.67%
Cc1ccc(C)c(NC(=O)n2ncc3cc(Cl)ccc32)c1 0.677%
COC(=O)C(C)Sc1ccc2nnc(CCNS(=O)(=O)c3ccc(C)cc3)n2n1 (configuration not stated) 3.24%
Cc1ncc(CO)c2c1Oc1nc(-c3ccccc3Cl)nc(SCc3ccccc3F)c1C2 0.497%
COCCCNC(=O)Cn1cnc2sc(C)c(S(=O)(=O)N3CCC(C)CC3)c2c1=O 0.798%
CC(C)NC(=O)c1ccc(Cn2c(SCC(N)=O)nc3ccccc3c2=O)cc1 -0.84%
Cc1ccc(CCNC(=O)c2ccc3nc(N4CCC(C)CC4)sc3c2)cc1 1.69%
CCOc1ccc(C2CC(=O)Nc3nc(SCc4ccccc4C)[nH]c(=O)c32)cc1OC (configuration not stated) 2.44%
COc1cc(Cl)c(C)cc1Nc1nc2ccccc2c2nnc(C)n12 6.97%
O=C(NCc1cccnc1)c1nn(-c2ccc(Cl)cc2)nc1CO 0.965%
COc1ccc2nc(N(Cc3cccnc3)C(C)=O)sc2c1 -1.46%
COc1ccc(C2CC(=O)N3CN(C4CCCCC4)CSC3=C2C#N)c(OC)c1 (configuration not stated) 9.09%
CCC(Oc1ccccc1-c1nnc(-c2ccccc2)o1)C(=O)Nc1ccc(C(C)=O)cc1 (configuration not stated) 1.47%
COC(=O)c1ccc(NC(=O)CSc2ccc(-c3sc(-c4ccccc4)nc3C)nn2)cc1 2.32%
COc1ccccc1C1CC(=O)NC(C)=C1C(=O)OC1CCCCCC1 (configuration not stated) 0.771%
O=C(NC1CC(=O)N(c2ccc(F)cc2)C1)c1ccco1 (configuration not stated) -4.04%
COc1ccc(Nc2ncc3c(n2)CCN(Cc2ccccc2C)C3)c(OC)c1 0%
O=C(Nc1cccc(C(F)(F)F)c1)c1ccc2c(c1)nnn2C1CCCC1 -12%
CCc1ccc(-n2c(=O)c3c4c(sc3n(Cc3ccccc3C#N)c2=O)CCC4)cc1 -1.33%
COc1ccc(S(=O)(=O)NCCc2nnc3ccc(SCC(=O)Nc4ccccc4C)nn23)cc1 -0.914%
Cn1cc(CN(C(=O)Nc2ccccc2)C2CCCCC2)c2ccccc21 -6.39%
COc1ccc(-c2nc3sc(CCNC(=O)c4ccco4)c(C)n3n2)cc1 1.54%
CCS(=O)(=O)Nc1ccc(-c2cn3ccsc3n2)cc1 7.01%
COc1cc2c(cc1OC)CN(C(=O)Nc1ccccc1)CC2 -8.46%
Cc1cccc(N2CCN(S(=O)(=O)c3c(C)nc4scc(C)n4c3=O)CC2)c1C 3.04%
COc1ccccc1NC(=O)c1ccc(COc2ccc(C)c(C)c2)o1 -2%
CCCCn1c(=O)c2oc3ccccc3c2n(CC(=O)Nc2ccc(CC)cc2)c1=O 1.04%
CCn1cc2nc(SCc3cc(C)ccc3C)n(CCc3ccccc3)c(=O)c2n1 4.92%
CC1CCN(C(c2ccccc2)c2sc3nc(-c4ccco4)nn3c2O)CC1 (configuration not stated) 1.14%
O=C(CSc1nc(-c2ccccc2)cn1-c1ccccc1F)Nc1ccc(F)cc1 -9.79%
COc1ccc(CNS(=O)(=O)c2cc3c(cc2Cl)N(C(C)=O)CCO3)cc1 4.33%
COc1cc(NC(=O)CN2CCN(S(=O)(=O)c3ccc(Br)cc3)CC2)cc(OC)c1 -3.92%
Cc1ccc(Nc2cc(C(=O)NCCc3ccccc3)c3ccccc3n2)c(C)c1 -9.09%
COc1ccc(NC(=O)CSc2nc(-c3cc(OC)c(OC)c(OC)c3)[nH]c2-c2ccc(F)cc2)cc1 -10.6%
O=C(Cn1nc(-c2ccc(Cl)cc2)c2ccccc2c1=O)Nc1cccc(Br)c1 -20.8%
CCCCC(=O)Nc1c(C(=O)N2CCN(c3ccccc3F)CC2)oc2ccccc12 -12.5%
COc1ccc(CNC(=O)C2CCN(c3nnc(-n4c(C)ccc4C)s3)CC2)c(OC)c1 0.0796%
Cc1nc2ccc(S(=O)(=O)N(C)CC(=O)Nc3ccc(C(C)C)cc3)cc2s1 -11.8%
CC1CCN(S(=O)(=O)c2ccc3c(c2)c(=O)c(C(=O)N2CCN(c4cccc(Cl)c4)CC2)cn3C)CC1 2.45%
Cc1ccc(-n2ncc(C(=O)NCCN3CCc4ccccc4C3)c2C2CCN(C(=O)OC(C)(C)C)CC2)cc1C -4.61%
COc1ccc(NC(=O)CN2CCN(CC(=O)Nc3ccccc3F)CC2)c(OC)c1 5.72%
O=c1c2cc3c(cc2nc2sc(Nc4ccccc4)nn12)OCO3 3.66%
COc1ccc(-c2nc(SCC(=O)NC(C)CCc3ccccc3)n[nH]2)cc1 (configuration not stated) -23.5%
COc1ccc(S(=O)(=O)c2c(Nc3cccc(C)c3C)sc(C(=O)c3ccccc3)c2N)cc1 -2.21%
CCOC(=O)c1c(C)oc2nc(C)nc(NCCc3ccc(OCC)c(OCC)c3)c12 2.52%
CCN(c1ccccc1)S(=O)(=O)c1c(C)nc2scc(C)n2c1=O -3.04%
COc1ccc(N2CCN(c3ncnc4c3cnn4-c3ccc(F)cc3)CC2)cc1 -7.13%
CCc1ccccc1NC(=O)CCCSc1nc(-c2ccco2)cc(C(F)(F)F)n1 -2.31%
COc1ccc(NC(=O)C2=CC(c3ccco3)=NS(=O)(=O)N2C)cc1OC 3.59%
CCN(c1ccccc1)S(=O)(=O)c1nnc(NC(=O)c2ccccc2OC)s1 3.18%
CCOCCc1nn2c(=O)cc(COC(=O)c3ccc(NC(=O)C4CCCCC4)cc3)nc2s1 0%
Cc1cc(NC(=O)c2ccc3c(c2)N(Cc2cccc(Cl)c2)C(=O)c2ccccc2S3(=O)=O)ccc1Br 3.15%
O=C(CS(=O)(=O)c1cccc2nsnc12)N1CCN(c2ccccc2F)CC1 0.0433%
COc1ccccc1CNc1nc2ccc(C)cc2n2nnnc12 0%
Cc1nn(-c2ccccc2)c(OC(=O)c2ccccc2Br)c1S(=O)(=O)c1ccccc1 -2.21%
O=C1CC(c2c(Cl)cccc2Cl)c2c(ccc3ccccc23)N1 (configuration not stated) -24.5%
CC1=C(C(=O)Nc2ccccc2Cl)C(c2cccc(O)c2)n2ncnc2N1 (configuration not stated) 0.878%
COc1cc(C2C(=O)N(C3CCCCC3)CC(=O)N2CCc2ccccc2)ccc1OC(C)C (configuration not stated) 1.25%
